Test results reported in article PMC4336329 (PLoS ONE, 2015).
Among all 310,000 compounds or so, about 2,200 (0.71%) showed an effect of 50% or more. Effects have a minus sign here. The list shows a part of the results.

Molecular target: human ether-à-go-go-related gene (hERG) potassium channel (human, UniProt Q12809)
Assay: primary screen, population patch clamp on CHO cells stably expressing hERG

Chain of human ether-à-go-go-related gene (hERG) potassium channel (Q12809 whole entry, looked up): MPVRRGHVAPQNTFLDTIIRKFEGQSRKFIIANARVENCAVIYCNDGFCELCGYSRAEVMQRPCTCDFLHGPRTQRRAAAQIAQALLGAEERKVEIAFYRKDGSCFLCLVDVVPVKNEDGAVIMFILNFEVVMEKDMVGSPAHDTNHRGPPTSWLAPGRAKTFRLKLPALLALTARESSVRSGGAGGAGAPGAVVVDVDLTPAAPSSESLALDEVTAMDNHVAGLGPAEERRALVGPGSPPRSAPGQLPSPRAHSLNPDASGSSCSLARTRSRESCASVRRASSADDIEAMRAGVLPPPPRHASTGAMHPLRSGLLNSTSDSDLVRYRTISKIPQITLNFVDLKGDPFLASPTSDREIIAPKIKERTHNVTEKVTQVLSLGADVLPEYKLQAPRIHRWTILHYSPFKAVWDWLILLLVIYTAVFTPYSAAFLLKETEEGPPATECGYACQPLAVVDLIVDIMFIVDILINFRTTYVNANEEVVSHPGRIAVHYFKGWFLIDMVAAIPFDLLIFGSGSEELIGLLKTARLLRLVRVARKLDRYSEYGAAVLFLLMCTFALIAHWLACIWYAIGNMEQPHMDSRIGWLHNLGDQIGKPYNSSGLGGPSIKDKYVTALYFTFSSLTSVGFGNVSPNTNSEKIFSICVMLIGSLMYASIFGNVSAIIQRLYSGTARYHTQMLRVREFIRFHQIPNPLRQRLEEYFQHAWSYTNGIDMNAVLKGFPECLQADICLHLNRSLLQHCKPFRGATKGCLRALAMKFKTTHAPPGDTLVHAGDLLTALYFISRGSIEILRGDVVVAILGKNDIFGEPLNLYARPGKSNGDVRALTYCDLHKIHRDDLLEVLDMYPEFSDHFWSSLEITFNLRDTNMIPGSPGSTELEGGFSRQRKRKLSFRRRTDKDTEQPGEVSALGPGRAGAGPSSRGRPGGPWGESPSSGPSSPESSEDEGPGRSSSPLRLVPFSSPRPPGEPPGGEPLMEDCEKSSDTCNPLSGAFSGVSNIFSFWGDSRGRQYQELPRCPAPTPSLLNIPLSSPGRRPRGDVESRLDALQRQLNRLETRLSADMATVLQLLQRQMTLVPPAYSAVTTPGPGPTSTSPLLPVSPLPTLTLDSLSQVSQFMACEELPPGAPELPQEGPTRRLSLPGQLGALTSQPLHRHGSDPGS

| SMILES | hERG current change (%, negative = inhibition) at 1uM |
| --- | --- |
| COc1ccc(C(=O)CN2CCN(S(=O)(=O)c3cccc([N+](=O)[O-])c3)CC2)cc1 | -64.3% |
| CN(C)C(/C=C/Nc1cccc(Br)c1)=C(C#N)C#N | 16.9% |
| Brc1ccc(-c2cn3ccccc3n2)s1 | 2.2% |
| Cc1nonc1N1CCN(Cc2cn[nH]c2-c2ccc3c(c2)OCO3)CC1 | 5.53% |
| Cc1ccc(-c2cc(C(=O)N3CCCc4ccccc43)c3ccccc3n2)cc1 | 8.11% |
| CCCCOC(=O)C1=C(C)NC(=O)NC1c1cc2c(cc1Br)OCO2 (stereo not shown) | 13.1% |
| COc1ccc(N2C(=NC(=O)c3ccc(Br)cc3)SC3CS(=O)(=O)CC32)cc1 (stereo not shown) | 9.53% |
| Cc1nc(Cl)c(C#N)cc1-c1ccccc1 | -0.883% |
| COc1ccc(-c2cn3cc(C)ccc3n2)cc1Br | 16.3% |
| Cc1c(/C=C/C(=O)c2ccc(C(C)C)cc2)cnn1C | 2.64% |
| CCn1cc(C(=O)N2CC(C)CC(C)C2)c(=O)c2cc(S(=O)(=O)N3CCCC3)ccc21 (stereo not shown) | 13.8% |
| COc1ccc(C(=O)NC(=S)Nc2ccc(CN3CCOCC3)cc2)cc1Br | 15.3% |
| CSCCC(NC(=O)c1ccccc1Cl)C(=O)NCC(c1ccco1)N1CCCCC1 (stereo not shown) | 14.6% |
| COc1ccc(-c2cc(C(=O)N3CCN(c4ccc(F)cc4)CC3)no2)cc1OC | 11.6% |
| CC1CCCCC1NC(=S)Nc1ccc(Cl)cc1Cl (stereo not shown) | 5.95% |
| CCOC(=O)c1c(NC(=O)C(=O)N/N=C(\C)c2ccc(OC)cc2)sc2c1CCCCC2 | 8.9% |
| COc1ccc(CNS(=O)(=O)c2ccc(-c3cc(C)no3)cc2)cc1 | 8.68% |
| Cc1c(C(=O)O)sc2nc(/C=C/c3ccccc3OC(F)F)[nH]c(=O)c12 | 5.17% |
| COc1cc(-c2nn3c(COc4ccccc4)nnc3s2)cc(OC)c1OC | 21.7% |
| O=C(O)C1=C[C@H](c2cccs2)C[C@H](OCCCCO)O1 | 10.6% |
| COc1ccc2c(COC(=O)CNS(=O)(=O)c3ccc(C)c(C)c3)cc(=O)oc2c1 | 11.5% |
| COC(=O)c1ccccc1C(=O)c1ccc2c(c1)NC(=O)CO2 | 13.8% |

| SMILES | hERG current change (%, negative = inhibition) at 1uM |
| --- | --- |
| Cn1c(=O)[nH]c(=O)c2c1nc(N1CCNCC1)n2Cc1ccccc1Cl | 14.6% |
| CCCCOc1ccc(CSC(CC(=O)O)C(=O)O)cc1 (stereo not shown) | 17.4% |
| O=C(Cn1cc(C(=O)c2cccs2)c2ccccc21)NCC1CCCO1 (stereo not shown) | 16.3% |
| Cc1cc(Cl)ccc1OCC(=O)N1C(C)CCCC1C (stereo not shown) | -10.8% |
| COc1ccc(S(=O)(=O)Cc2ccc(C(=O)NCCCN(C)c3ccccc3)o2)cc1 | -6.34% |
| CCCCCCCCCCNC(=O)CCn1[nH]c(=O)c2ccccc2c1=O | 12% |
| COc1ccc(S(=O)(=O)NCc2ccccc2)cc1 | -6.58% |
| COc1ccc(CCNC(=O)CSc2cn(Cc3ccccc3)c3ccccc23)cc1OC | 7.53% |
| Cc1csc(NC(=O)c2sc3nc(-c4cccs4)ccc3c2N)n1 | 9.18% |
| O=C1COCCOCCOCC(=O)NCCN1 | 15% |
| C=C(C)CN1CC[C@]23c4c5ccc(O)c4O[C@H]2c2[nH]c4ccccc4c2C[C@@]3(O)C1C5.Cl.O | 12.8% |
| O=C(Cc1cccs1)Nc1nnc(SCC(=O)N2CCCCC2)s1 | 3.07% |
| Cc1ccc(-c2csc3ncn(CC(N)=O)c(=O)c23)cc1C | 15.1% |
| CCNc1nc(NCC)n2c(SCC(=O)N(CC)C3CCCCC3)nnc2n1 | 11.8% |
| COc1ccc(CCNC(=O)C2CCCN2C(=O)Nc2cccc(OC)c2)cc1 (stereo not shown) | 12.2% |
| O=C(Nc1ccc2c(c1)OCO2)C1CCCN1C(=O)OCc1ccccc1 (stereo not shown) | 5.86% |
| Cc1cc(S(=O)(=O)n2cnc3cc([N+](=O)[O-])ccc32)ccc1Cl | 4.33% |
| Cc1ccc(S(=O)(=O)N(CC(=O)N2CCN(c3ccc(F)cc3)CC2)C2CCCCC2)cc1 | -9.32% |
| CCOc1ccc(-c2nnc(-c3ccco3)o2)cc1OCC | 3.42% |
| O=C(NC1CCCCC1)C(c1ccncc1)N(C(=O)c1csnn1)c1ccc(F)cc1 (stereo not shown) | 19.8% |
| CC(NC(=O)c1cc(-c2ccc(Br)cc2)on1)c1ccccc1 (stereo not shown) | -2.12% |
